# Measurements as given in PubChem BioAssay (Tox21).
# “And” between values parts separate entries of the source, which are not always exact repeats. Identical values can stand only once. The inconclusive results got no clear call from the source; some entries with a clear call stand among them for comparison. Potencies beside an inconclusive call are fits to weak or partial responses and may not hold up. Where a structure was tested more than once in an assay, its records may differ in their call. The source made the active and inactive calls. Unless noted, calls come from the whole dose curve; as a rule, active = well fitted curve in the direction sought with a large enough effect in the repeat runs; inconclusive = weak or mixed curves; inactive = no such curve, though single readings can be large; an effect the other way counts as inactive or inconclusive.
# How the values were obtained:
# [1] = qHTS assay for small molecules that induce genotoxicity in human embryonic kidney cells expressing luciferase-tagged ATAD5 (AID 651632); note: nearly all actives have a fitted effect of over 15% in size
# In short: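 A rise in luciferase signal from ATAD5-tagged HEK293T cells marks genetic stress. Cells were exposed to compounds for 16 hr at 37C, 5% CO2, then luciferase was quantified after a 30 min room-temperature incubation with Amplite.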
# [2] = qHTS assay for small molecule agonists of the p53 signaling pathway - cell viability (AID 651633; calls by dose curve; note: nearly all actives have a fitted effect of over 30% in size)
# In short: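 p53RE-bla cells were treated with compound for 16 hours at 37 C. Cytotoxicity was then measured as CellTiter-Glo luminescence after 30 min at room temperature.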
# [3] = qHTS assay for small molecules that induce genotoxicity in human embryonic kidney cells expressing luciferase-tagged ATAD5 - cell viability (AID 651634; calls by dose curve; note: nearly all actives have a fitted effect of over 25% in size)
# In short: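 Cytotoxicity counter-readout: after 15.5 hr compound treatment at 37C, live-cell protease activity in ATAD5-luciferase HEK293T cells measured by CellTiter-Fluor fluorescence, 30 min development at 37C.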
# [4] = qHTS assay for small molecule disruptors of the mitochondrial membrane potential - cell viability (AID 720634; calls by dose curve; note: nearly all actives have a fitted effect of over 20% in size;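 for activity change, negative = cytotoxicity: human HepG2 liver cancer cells; % is set by controls: 0 for no effect and ±100 for the full control effect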)
# In short: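 Cytotoxicity was quantified from ATP content by CellTiter-Glo luminescence in the same wells as the MMP dye read-out. HepG2 (2,000 cells/well) were plated overnight and exposed to compounds for 1 hr at 37 C.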
# [5] = qHTS assay for small molecule disruptors of the mitochondrial membrane potential (AID 720635); settings: HepG2 mitochondrial membrane potential, Mito-MPS dye ratio; ratio activity, negative = MMP loss: at 83.2 µM (top of the series) unless noted
# In short: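 HepG2 cells exposed to compound 1 hr at 37C, then Mito-MPS dye 30 min. Ratio read of aggregate (540/590 nm) versus monomer (490/535 nm) fluorescence.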
# [6] = molecular target: Glucocorticoid receptor (Homo sapiens) (UniProt P04150); assay: qHTS assay to identify small molecule agonists of the glucocorticoid receptor (GR) signaling pathway (AID 720691; active = well fitted activation curve with a large enough effect in the signal ratio in the repeat runs, not every such curve was filed as active; inconclusive = weak or mixed curves, or effect the other way; inactive = no such curve, though single readings can be large or run the other way; the % refers to the signal ratio; for activation: % is set by controls: 0 for no effect and ±100 for the full control effect); settings: GR-bla HeLa, beta-lactamase reporter ratio, 18 h; activation: at 62.4 µM (top of the series) unless noted
# In short: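 Agonist-mode qHTS in HeLa cells stably expressing a glucocorticoid-response-element beta-lactamase reporter. Fluorescence intensity read with FRET substrate (2 h, room temperature) after 18 h compound treatment at 37 C.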
# [7] = molecular target: Glucocorticoid receptor (Homo sapiens) (UniProt P04150); assay: qHTS assay to identify small molecule antagonists of the glucocorticoid receptor (GR) signaling pathway (AID 720692; active = well fitted inhibition curve with a large enough effect in the signal ratio in the repeat runs, not every such curve was filed as active; inconclusive = weak or mixed curves, or effect the other way; inactive = no such curve, though single readings can be large or run the other way; the % refers to the signal ratio); settings: GR-bla HeLa, beta-lactamase FRET ratio, dexamethasone-stimulated, 18 h; activity change, negative = inhibition: at 58.5 µM (top of the series) unless noted
# In short: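 Inhibition of dexamethasone-driven (5 nM final) beta-lactamase expression was measured in GRE-reporter HeLa cells over 18 h at 37C. Fluorescence was read after 2 h with the B/G FRET substrate at room temperature.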
# [8] = qHTS assay for identifying genotoxic compounds that show differential cytotoxicity against isogenic chicken DT40 cell lines with known DNA damage response pathways - Rev3 mutant cell line (AID 743014); settings: chicken DT40 Rev3-/- viability, CellTiter-Glo, 40 h; activity, negative = cytotoxicity: at 68.4 µM (top of the series); note: nearly all actives have a fitted effect of over 55% in size
# [9] = qHTS assay to identify small molecule antagonists of the androgen receptor (AR) signaling pathway - cell viability counter screen (AID 743033; note: nearly all actives have a fitted effect of over 45% in size); settings: AR-bla HEK293 viability, CellTiter-Glo luminescence, 16 h; activity change, negative = cytotoxicity: at 58.5 µM (top of the series)
# [10] = qHTS assay to test for compound auto fluorescence at 460 nm (blue) in HepG2 cell free culture (AID 720685)
# In short: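 Cell-free plates of MEM plus 10% FBS received 23 nL compound or DMSO vehicle; blue-channel (405/460 nm) intensity scored against triamterene as reference fluorophore.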
# [11] = qHTS assay for identifying genotoxic compounds that show differential cytotoxicity against isogenic chicken DT40 cell lines with known DNA damage response pathways - wild type cell line (AID 743012); settings: DT40 wild type chicken cells viability, CellTiter-Glo, 40 h; activity change, negative = cytotoxicity: at 68.4 µM (top of the series) unless noted; note: nearly all actives have a fitted effect of over 60% in size
# In short: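 Viability by ATP luminescence (CellTiter-Glo, 30 min RT) after 40 h compound treatment at 37 C/5% CO2, using 300 parental DNA repair-proficient DT40 cells per well.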
# [12] = qHTS assay to identify small molecule antagonists of the glucocorticoid receptor (GR) signaling pathway - cell viability counter screen (AID 720693); settings: GR-bla HeLa viability, CellTiter-Glo luminescence, 18 h, with 5 nM dexamethasone present; viability change, negative = cytotoxic: at 58.5 µM (top of the series) unless noted; note: nearly all actives have a fitted effect of over 55% in size; for viability change, negative = cytotoxic: % is set by controls: 0 for no effect and ±100 for the full control effect
# [13] = qHTS assay for small molecule agonists of the p53 signaling pathway (AID 651631; calls by dose curve; note: nearly all actives have a fitted effect of over 15% in size); settings: HCT-116 p53RE-bla reporter, beta-lactamase FRET ratio, 16 h; activation: at 73.3 µM (top of the series) unless noted
# In short: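 We treat p53RE-bla HCT-116 cells with compounds for 16 h at 37 °C, add LiveBLAzer B/G FRET substrate for 2 h at room temperature, and measure fluorescence intensity.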
# [14] = qHTS assay for identifying genotoxic compounds that show differential cytotoxicity against isogenic chicken DT40 cell lines with known DNA damage response pathways - Rad54/Ku70 mutant cell line (AID 743015); settings: DT40 Rad54/Ku70 mutant viability, CellTiter-Glo, 40 h; activity change, negative = cytotoxicity: at 66.8 µM (top of the series); note: nearly all actives have a fitted effect of over 60% in size
# Potency is the fitted concentration of half-maximal effect; tags give direction and shape of the fitted curve or compound fluorescence and quenching.
# UniProt P04150, sequence (P04150 whole entry, looked up): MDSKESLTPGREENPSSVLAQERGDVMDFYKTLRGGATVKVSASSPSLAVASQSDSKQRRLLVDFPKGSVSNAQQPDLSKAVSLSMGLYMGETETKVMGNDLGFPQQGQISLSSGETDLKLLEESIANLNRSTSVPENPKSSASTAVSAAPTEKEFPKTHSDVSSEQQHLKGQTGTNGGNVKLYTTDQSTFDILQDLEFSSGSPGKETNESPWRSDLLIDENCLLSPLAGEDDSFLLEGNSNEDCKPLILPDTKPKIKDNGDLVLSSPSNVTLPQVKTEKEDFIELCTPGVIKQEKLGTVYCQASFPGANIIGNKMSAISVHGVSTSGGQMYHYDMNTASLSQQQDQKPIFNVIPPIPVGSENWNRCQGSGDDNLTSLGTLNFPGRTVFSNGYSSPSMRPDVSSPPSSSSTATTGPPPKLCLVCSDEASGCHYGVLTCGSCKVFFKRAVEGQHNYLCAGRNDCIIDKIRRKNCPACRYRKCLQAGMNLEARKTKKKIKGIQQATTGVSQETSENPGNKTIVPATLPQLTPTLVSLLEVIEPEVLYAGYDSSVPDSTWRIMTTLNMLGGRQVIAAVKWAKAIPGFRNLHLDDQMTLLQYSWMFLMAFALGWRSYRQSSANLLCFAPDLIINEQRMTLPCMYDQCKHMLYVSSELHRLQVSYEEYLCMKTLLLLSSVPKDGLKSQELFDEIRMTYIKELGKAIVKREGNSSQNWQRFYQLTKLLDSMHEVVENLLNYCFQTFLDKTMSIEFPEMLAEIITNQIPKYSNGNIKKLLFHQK
compound,measurement,setting,value
O=C(O)c1cc[c]([Hg][Cl])cc1,Potency,[1],"inconclusive: 54.5 µM [activator, partial curve]"
same,Potency,[2],"inconclusive: 68.6 µM [cytotoxic, single point]"
same,Potency,[3],"inconclusive: 17.2 µM [falling, partial curve, poor fit]"
same,Potency,[4],inactive
same,Potency,[5],"inconclusive: 61.1 µM [activator, partial curve, poor fit]"
same,Potency,[6],"inconclusive: 21.9 µM [activator, partial curve, poor fit]"
CCCCCCCC[N+](C)(CCCCCCCC)CCCCCCCC,Potency,[2],active: 10.8 µM and active: 24.4 µM and active: 24.3 µM
same,Potency,[4],"active: 27.3 µM and inconclusive: 1.72 µM [cytotoxic, full curve, poor fit] and active: 54.5 µM"
same,Potency,[5],active: 1.72 µM and active: 770 nM and active: 2.43 µM
same,Potency,[6],"inconclusive: 9.75 µM [cytotoxic, full curve] and inconclusive: 7.77 µM [cytotoxic, full curve] and inconclusive: 11 µM [cytotoxic, full curve]"
same,Potency,[7],"inconclusive: 17.3 µM [cytotoxic, partial curve] and inconclusive: 12.3 µM [cytotoxic, full curve] and inconclusive: 19.5 µM [cytotoxic, full curve]"
same,Potency,[8],"inconclusive: 27.3 µM [cytotoxic, single point]"
same,Potency,[9],active: 3.46 µM and active: 872 nM and active: 3.47 µM
CC[C@H](C)[C@H]1O[C@]2(C=C[C@@H]1C)C[C@@H]1C[C@@H](C/C=C(\C)[C@@H](O[C@H]3C[C@H](OC)[C@@H](O[C@H]4C[C@H](OC)[C@@H](O)[C@H](C)O4)[C@H](C)O3)[C@@H](C)/C=C/C=C3\CO[C@@H]4[C@H](O)C(C)=C[C@@H](C(=O)O1)[C@]34O)O2,Potency,[2],"inconclusive: 33.5 µM [cytotoxic, single point] and active: 14.4 µM"
same,Potency,[4],"inconclusive: 40.5 µM [cytotoxic, single point]"
same,Potency,[5],"inconclusive: 31.2 µM [inhibitor, single point] and active: 28.7 µM"
same,Potency,[10],"inconclusive: 7.08 µM [fluorescent, partial curve, poor fit]"
same,Potency,[6],"inconclusive: 20.5 µM [falling, partial curve]"
same,Potency,[7],"active: 23.9 µM and inconclusive: 32.5 µM [cytotoxic, single point]"
same,Potency,[8],active: 21.1 µM and active: 10.2 µM
same,Potency,[9],"inconclusive: 11.5 µM [cytotoxic, partial curve, poor fit]"
N#CC(Cl)Cl,Potency,[1],"inconclusive: 74.9 µM [activator, partial curve, poor fit]"
same,Potency,[4],inactive
same,Potency,[5],"inconclusive: 47.3 µM [activator, partial curve, poor fit]"
same,Potency,[11],"inconclusive: 66.8 µM [cytotoxic, single point]"
same,Potency,[9],"inconclusive: 47.7 µM [cytotoxic, partial curve, poor fit]"
CCCCCCCCCc1ccc(O)cc1,Potency,[2],"inconclusive: 69.3 µM [cytotoxic, single point]"
same,Potency,[3],"inconclusive: 69.3 µM [falling, single point]"
same,Potency,[5],active: 6.18 µM
same,Potency,[12],"inconclusive: 55.5 µM [cytotoxic, single point]"
same,Potency,[11],"inconclusive: 61.8 µM [cytotoxic, partial curve, poor fit]"
same,Potency,[8],"inconclusive: 15.5 µM [cytotoxic, full curve]"
same,Potency,[9],"inconclusive: 49.5 µM [cytotoxic, partial curve]"
COC(=O)c1cc(Oc2ccc(Cl)cc2Cl)ccc1[N+](=O)[O-],Potency,[13],"inconclusive: 54.5 µM [falling, partial curve]"
same,Potency,[14],active: 24.3 µM
N#Cc1c[nH]cc1-c1cccc2c1OC(F)(F)O2,Potency,[2],"inconclusive: 24.3 µM [cytotoxic, partial curve, poor fit]"
same,Potency,[4],active: 5.45 µM
same,Potency,[5],active: 2.17 µM
same,activation,[6],inconclusive: -6.14%
same,Potency,[7],active: 9.77 µM
same,Potency,[12],"inconclusive: 5.49 µM [cytotoxic, full curve]"
same,Potency,[9],"inconclusive: 21.9 µM [cytotoxic, partial curve]"
CCCCCCCCCC[N+](C)(C)CCCCCCCCCC,Potency,[2],active: 26.6 µM and active: 61.1 µM
same,Potency,[4],active: 26.6 µM
same,Potency,[5],active: 8.41 µM and active: 24.3 µM
same,Potency,[6],"inconclusive: 13.4 µM [cytotoxic] and inconclusive: 21.9 µM [cytotoxic, full curve]"
same,Potency,[12],"inconclusive: 26.8 µM [cytotoxic, single point] and active: 24.5 µM"
same,Potency,[8],active: 841 nM and active: 433 nM
COc1cc(-c2ccc(N)c(OC)c2)ccc1N,Potency,[1],"inconclusive: 61.4 µM [activator, partial curve, poor fit] and inconclusive: 34 µM [activator, partial curve, poor fit] and inconclusive: 68.6 µM [activator, partial curve, poor fit]"
same,Potency,[2],"inconclusive: 58.3 µM [cytotoxic, single point]"
same,Potency,[3],"inconclusive: 68.9 µM [falling, partial curve, poor fit]"
same,Potency,[4],"inconclusive: 65.5 µM [cytotoxic, partial curve, poor fit]"
same,Potency,[12],"inconclusive: 46.7 µM [cytotoxic, partial curve, poor fit]"
same,Potency,[8],"inconclusive: 68.9 µM [cytotoxic, single point] and inconclusive: 12.1 µM [cytotoxic, partial curve, poor fit] and inconclusive: 61.1 µM [cytotoxic]"
same,Potency,[9],"inconclusive: 27.6 µM [cytotoxic, partial curve, poor fit] and inconclusive: 46.7 µM [cytotoxic, partial curve, poor fit]"
C=CC(=O)OCC(COC(=O)C=C)(COC(=O)C=C)COC(=O)C=C,Potency,[1],active: 5.45 µM
same,Potency,[5],"inconclusive: 43.3 µM [activator, partial curve]"
same,Potency,[6],"inconclusive: 17.4 µM [cytotoxic, full curve]"
same,Potency,[7],inconclusive: 19.5 µM [cytotoxic]
same,Potency,[12],active: 8.71 µM
same,Potency,[11],active: 0.77 µM
same,Potency,[9],active: 6.92 µM
CCCCCCCCCC(CC)c1ccc(S(=O)(=O)O)cc1 (stereo unspecified),Potency,[1],"inconclusive: 61.1 µM [activator, partial curve, poor fit] and inconclusive: 29.8 µM [activator] and inconclusive: 19.3 µM [activator, partial curve]"
same,Potency,[2],"inconclusive: 61.8 µM [cytotoxic, single point] and inconclusive: 68.5 µM [cytotoxic, single point]"
same,Potency,[3],"inconclusive: 30.6 µM [falling, partial curve, poor fit] and inconclusive: 26.6 µM [falling, partial curve, poor fit]"
same,Potency,[4],active: 68.6 µM
same,Potency,[6],"inconclusive: 55.5 µM [cytotoxic, single point] and inconclusive: 26.8 µM and inconclusive: 49 µM [cytotoxic]"
same,Potency,[12],"inconclusive: 26.8 µM [cytotoxic, single point]"
same,"viability change, negative = cytotoxic",[12],inconclusive: 31.1% [at 78.9 µM]
same,Potency,[8],inconclusive: 68.9 µM [cytotoxic]
same,Potency,[14],"inconclusive: 42.8 µM [cytotoxic, partial curve] and inconclusive: 9.44 µM [cytotoxic, partial curve, poor fit]"
CC(Cc1ccc(C(C)(C)C)cc1)CN1C[C@@H](C)O[C@@H](C)C1 (stereo partly specified),Potency,[13],"inconclusive: 0.486 µM [rising, full curve, poor fit]"
same,Potency,[9],"inconclusive: 49 µM [cytotoxic, single point]"
COP(=O)(OC)OC(Br)C(Cl)(Cl)Br (stereo unspecified),Potency,[1],"inconclusive: 24.4 µM [activator, partial curve] and inconclusive: 68.6 µM [activator, single point]"
same,Potency,[3],"inconclusive: 43.3 µM [falling, partial curve]"
same,activation,[6],inconclusive: 0.724% [phenotype inactive]
same,Potency,[7],"inconclusive: 61.7 µM [inhibitor, single point]"
same,Potency,[12],"inconclusive: 61.7 µM [cytotoxic, single point]"
same,Potency,[9],"inconclusive: 55 µM [cytotoxic, single point] and inconclusive: 49 µM [cytotoxic, single point]"
Nc1ccccc1C(=O)OCCc1ccccc1,Potency,[1],active: 1.09 µM and active: 433 nM
same,Potency,[4],inconclusive: 54.7 µM [cytotoxic] and inconclusive: 54.5 µM [cytotoxic]
same,Potency,[5],active: 48.8 µM and active: 43.3 µM
same,Potency,[6],inactive
same,Potency,[11],"inconclusive: 12.2 µM [rising, full curve]"
same,Potency,[8],"inconclusive: 61.4 µM [cytotoxic, partial curve]"
same,Potency,[9],"inconclusive: 34.8 µM [cytotoxic, partial curve] and inconclusive: 21.9 µM [cytotoxic, partial curve]"
